This is one part of the list. At the low end of the ranking the order means little.
biological target: T1, GST-Rok (full length) (UniProt O34857); test: protein binding microarray; conditions: Rok is a gene silencer of Bacillus subtilis; high values mean tight binding; most listed sequences are background and not binding sites; double strand, one strand shown;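 note: rank score from −0.5 (least bound) to 0.5 (best bound)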
T1 sequence: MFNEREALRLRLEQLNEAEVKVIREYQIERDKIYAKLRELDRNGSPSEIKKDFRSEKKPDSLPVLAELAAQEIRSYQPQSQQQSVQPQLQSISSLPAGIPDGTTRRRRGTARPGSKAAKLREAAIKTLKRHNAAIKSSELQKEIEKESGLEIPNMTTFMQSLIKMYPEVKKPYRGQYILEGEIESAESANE

Sequence | binding signal [E-score]
AGGCCCCG | -0.384
TCAGATGA | -0.14
AAGACTGA | -0.0101
CTGACTCA | -0.0975
ATTAGTGG | 0.117
AAGATGGT | 0.0131
ACCAGGAG | -0.203
AGCCGGGC | -0.389
CCACCCTA | -0.188
GCGCAGAA | -0.0702
CCTCCAAG | -0.327
ACCCATTC | 0.0548
GTAAAAAA | 0.221
AGATTAAG | 0.135
ATAGCAGA | 0.144
AGCAGCCT | -0.0527
CTTGGGCC | -0.404
CAACTCAC | -0.0111
ATGCCCGC | -0.13
CGGAAGGC | -0.439
CACCCCTA | -0.273
CAATAGGA | -0.172

Sequence | binding signal [E-score]
CCATGCAG | -0.0628
AATGCGTG | 0.011
CGTTAGAG | -0.103
TAAGAGAA | 0.0944
CCAGCCAA | -0.28
TAATTAGA | 0.28
GTACCCAC | -0.0243
AACGCCAT | 0.0623
GTCCAGAA | -0.0598
AGACCGCG | -0.227
ACTTACCC | -0.106
AACCTAGT | 0.283
CCTTCCGA | -0.371
ATTTTTAC | 0.335
ACGACACG | -0.0491
CCGTCCGC | -0.158
GCTAACCC | -0.116
CCGGTAAG | -8.86e-05
ACCTACGG | -0.0536
AATTAATT | 0.291
CTATAGGA | 0.156
AGACCACA | -0.0913

Sequence | binding signal [E-score]
GCGAGCCA | -0.183
ATTACAGC | 0.19
CCTAGATA | 0.101
AGCGCGTC | -0.133
AGGCGGCC | -0.446
GTGTGTAA | 0.0808
CGGAAAGC | -0.146
CGGCGGTC | -0.184
CGACAGTA | 0.192
CGTAGGGA | -0.218
ATCACCAC | 0.0467
CTCTCGTC | -0.255
CGGTCACA | -0.0187
ACCTTTCG | -0.0106
GGTGGGGA | -0.398
CTTTCGTC | -0.045
AGTCTTAT | 0.185
ATATTACC | 0.273
CGCATAAC | 0.184
TAGTAATA | 0.408
AAGCGGCA | -0.133
AACTTAAG | 0.0622

Sequence | binding signal [E-score]
GGAAATGA | 0.0579
CGTCTAAA | -0.027
CACTGTAG | 0.0728
CTTTGTTC | -0.0972
CTGTTATC | -0.0552
CAGCCTTA | -0.113
ACATGGCA | 0.0934
AACAGCTA | 0.161
GTCCTGGA | -0.0873
ACATTCAG | 0.118
CAGGCTCG | -0.325
ATTTTGTC | 0.123
AGAGGCGA | -0.0227
ACGGTGGC | -0.0906
CGTTAAAA | 0.118
AAGTGGTC | -0.0764
CAGGCCAG | -0.143
CTTTACTC | -0.0813
AAGGAAGT | -0.269
CCCTTAAC | -0.134

— PMC6212790
